± gives the standard deviation of the averaged measurements. The list shows a part of the results.

In this assay the test system is PfAP2-EXP AP2 domain (GST-tagged). Put plainly: gcPBM binding intensity (ln(normalized median fluorescence intensity)); higher = stronger DNA binding. The gist of the method: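 Plasmodium falciparum DNA-binding domains carrying a GST tag were expressed in E. coli and applied for 1 h, at about 25 μg on average, to an Agilent 4 × 180k array. The array held primer-extended double-stranded 36-bp intergenic genomic probes together with negative controls, and binding took place in 1× PBS with 1% milk, 0.2 mg/ml BSA, 0.5% salmon testes DNA and 0.03% Triton X-100. An Alexa488 anti-GST antibody detected bound protein, and the array was scanned at 488 nm. Binding intensity is taken as the highest Masliner-normalised natural-log median intensity across replicate spots of either probe orientation.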
“TTTAAAATATTAAAATGTACATATATATATATATAT [XGTACX_site6784]”: the “gcPBM binding intensity (ln)” value came to 10.1 ± 0.3.
Then ATCCGCTGCCTTTTGGTGCAGAACATAATCATGTAA, with 8.54 ± 0.19.
Then “ACATAAATATATTTTTCACACATCCTTAGTTATGAA [CACACA_site5179]”, with 8.68 ± 0.49; and “TATATATATATATATACACACATACATATATATATT [CACACA_site8185]”, with 10.1 ± 0.4; and “AATGTATTTAAACTGACACACAAAAAAAATAAAATA [CACACA_site2138]”, with 8.75 ± 0.51.
Then “ATATTGTAAGTAAACACACACACATCTATAGGTATA [CACACA_site6462]”, with 8.7 ± 0.56.
As for “ATTATACATATGTATGCACACATACATACACATATA [CACACA_site9155]”, the “gcPBM binding intensity (ln)” value worked out at 8.66 ± 0.3.
Then “AATAGTAAAAGATATACACACACCAAAAAATAGAAT [CACACA_site2289]”, with 9.15 ± 0.46; and “TAATTTAAGAAAAAATGTACACAAATATAATAATAG [XGTACX_site8317]”, with 8.83 ± 0.34; and “ATATATATATGTTTATGTACTTATAATAATATAACT [XGTACX_site4828]”, with 9.47 ± 0.085.
Turning to “ATACATATATGTGTGTGTACATAAATGTATATATTT [XGTACX_site6242]”, the “gcPBM binding intensity (ln)” value was 8.53 ± 0.26.
For the sequence “AACTTTATTCCTAATTGTACACATATATATATATAT [XGTACX_site6823]”, the “gcPBM binding intensity (ln)” value was determined as 10.2 ± 0.16.
For the sequence “GTATCTTTCAAAATATGTACATATATATATGTGTGT [XGTACX_site3512]”, the “gcPBM binding intensity (ln)” value worked out at 8.91 ± 0.35.
As to “GCATGGAACCATATATGTACATATATAAATAAATAA [XGTACX_site4996]”, the “gcPBM binding intensity (ln)” value turned out to be 8.79 ± 0.47.
Then “CGTATAACATATGACACACACACATACATACACAAA [CACACA_site1803]”, with 8.74 ± 0.49.
Then “GATTTATATAATTCAAGTACTAAAAATATTTTTAAT [XGTACX_site5285]”, with 8.46 ± 0.25.
Then “TAACATTAAAATAAAAGTACTTAATAATATTAAGTA [XGTACX_site5920]”, with 8.31 ± 0.42; and “AAAAAAAATATCTATGCATGTAATATTATGATATTG [TGCATGCA_site546]”, with 8.52 ± 0.28; and “TTAATAATAAATGAAAGTACATATAAAAAAAAAAAA [XGTACX_site717]”, with 8.61 ± 0.47.
As to “TAAAATTTTTGTTTTTGTACGAAACATCAATTTTAC [XGTACX_site4963]”, the “gcPBM binding intensity (ln)” value stood at 8.45 ± 0.56.
Turning to “TTCTATATATTTGGAAGTACATTATATTTATTTTTT [XGTACX_site3172]”, the “gcPBM binding intensity (ln)” value came to 8.44 ± 0.33.
Then “CATATATAAATATGTACACACATATGTATGATCTCA [CACACA_site3868]”, with 8.4 ± 0.26; and “TTATTTATAAGTAATATTATATATTCTTTTAATACA [CACACA_negctrl_site471]”, with 7.93 ± 0.37.
With “ATAGGCAAAAAGTGTACACATTCATTTATATAAATA [CACACA_site4480]”, the “gcPBM binding intensity (ln)” value turned out to be 8.88 ± 0.36.
Then “AGATCTATTATTTTTTGTACTTATATATAAACTTAA [XGTACX_site1737]”, with 8.72 ± 0.36.
Consider “AATGGTATAAACAATACACACATAATATAAATATTG [CACACA_site6878]”, for which the “gcPBM binding intensity (ln)” value is 8.3 ± 0.42.
Consider “TTATATATAAATGTGTGTACTTATAAAATAATCATT [XGTACX_site5370]”, for which the “gcPBM binding intensity (ln)” value was determined as 8.44 ± 0.22.
Then AAAAAAATTACGCAAGTGCATATAATTTAACAAAAA, with 8.37 ± 0.29; and “ATATATATATATCACGCACACACGAATTTTAAATAT [CACACA_site3131]”, with 10.2 ± 0.2.
Then “ATCGCGAAGTAGCATTCACACACAGCAAAATATATA [CACACA_site9162]”, with 8.71 ± 0.67.
Then “AACATTTATATAAAAGAACACACATATAAAATATTA [CACACA_site9199]”, with 8.45 ± 0.49; and “AATGGTAATCCACATACACACACACCGACACATATA [CACACA_site8876]”, with 8.72 ± 0.49; and “AAATAACAAAAGAAGGTGCTCATAAAAATTCATACA [GTGCAC_site9864]”, with 8.68 ± 0.41.
Regarding “CATTTACCCTTATTAACACACAAAATAAAATACGCT [CACACA_site7249]”, the “gcPBM binding intensity (ln)” value worked out at 8.53 ± 0.45.
“AAAAAAAAAAAAAAAAAAAAAAAAAAAAAAAAAAAA [CACACA_negctrl_site204]”: the “gcPBM binding intensity (ln)” value was found to be 9.385 ± 0.064.
“ATACAATGATATATACATATATATATATATATATAT [TGCATGCA_negctrl_site359]”: the “gcPBM binding intensity (ln)” value is 10.2 ± 0.49.
As for “AAATTATAAAAAAAAAAAAAAAAAAAAAAAAAAAAA [XGTACX_negctrl_site501]”, the “gcPBM binding intensity (ln)” value stood at 7.95 ± 0.35.
With “AACAATAGTAAAAATACACACATTAAACTTCATTTC [CACACA_site2126]”, the “gcPBM binding intensity (ln)” value amounted to 8.41 ± 0.38.
Then “AATCATGCTCCGGAAAGTACATAAATAAATAAATAA [XGTACX_site1690]”, with 8.86 ± 0.42; and “ACAAAATTTTTAAGAACACACAAAAATGTACTATCG [CACACA_site2550]”, with 8.42 ± 0.34.
Then “GAAAGGACAAGAATAGTGCACATGCAATGTTATTTT [GTGCAC_site9985]”, with 9.17 ± 0.23; and “AAAAAAAAAAAACATACACACATACATACATATATA [CACACA_site8222]”, with 8.48 ± 0.4; and “CACATACACATACAAACACACATTATGTATATATAT [CACACA_site1599]”, with 8.62 ± 0.13.
As to “ATATATACAACTAAAGAACACACATCATTGTTCATT [CACACA_site9224]”, the “gcPBM binding intensity (ln)” value was 8.48 ± 0.41.
For the sequence “AAACAATTTTTTAAAAGTACTTGAAAATTGTGAAAT [XGTACX_site2461]”, the “gcPBM binding intensity (ln)” value stood at 8.74 ± 0.37.
Consider AAAAAAATAACAAAAGTGCATTTTTATGAGTTATCT, for which the “gcPBM binding intensity (ln)” value is 8.49 ± 0.33.
Then “ATATATAATTAATAAAGTACATTAATTATTTCTTTT [XGTACX_site3034]”, with 8.465 ± 0.078; and “AGATACAAGCACTATAGTACACATACTAAAAATATA [XGTACX_site5849]”, with 8.68 ± 0.46.
“TATAATTAAAATTTGTGTACGTATGACAAAACATTT [XGTACX_site7072]”: the “gcPBM binding intensity (ln)” value worked out at 8.52 ± 0.31.
Then “TTTCCTTACCCTTTCCTGGTGTAGAAATTATACTCT [TGCATGCA_negctrl_site116]”, with 8.72 ± 0.41.
In the case of “AATATATTATATATATGTACATAATGTGTAATACCT [XGTACX_site2845]”, the “gcPBM binding intensity (ln)” value was 8.71 ± 0.36.
Then “TTAAAATTTTTCAAAAGTACATAAATAATATATATT [XGTACX_site4694]”, with 8.47 ± 0.49.
As to “AAAAAAAATTCATATTGTACTTTTAAATTAAAGAAA [XGTACX_site4521]”, the “gcPBM binding intensity (ln)” value stood at 8.15 ± 0.12.
Then “GGAAAAAAATATAAAAGTACTTTTTATTTATTTTAT [XGTACX_site7418]”, with 8.36 ± 0.21.
Then “TTTTTTTTTGTTAAAGTGCATATATTAAATTTTCCT [GTGCAC_site9677]”, with 8.51 ± 0.35; and “TTTATTTGTTCATGCGTGCACTTGATAACAATGTAC [GTGCAC_site9561]”, with 8.945 ± 0.078.
“CGTTATATCAAAGGAGTGCATTATGAATACGTTTTA [GTGCAC_site9837]”: the “gcPBM binding intensity (ln)” value stood at 8.77 ± 0.16.
Then “AGTGAATATCTAAAATGTACATAAATAAATAAATAA [XGTACX_site8293]”, with 8.82 ± 0.38.
Regarding “AAAAAAAAAAAACATACACACATACATACAGATATA [CACACA_site4681]”, the “gcPBM binding intensity (ln)” value stood at 8.5 ± 0.64.
Then “TTCTATTTTATATGTGCACACATATACACCCACAAA [CACACA_site1130]”, with 9.26 ± 0.23; and “TTCTTTTTGAAACACACACACACAAGAAAATATATA [CACACA_site3110]”, with 8.88 ± 0.48; and “TTTCACTACACAAATACACACAAAAATATATGTGCA [CACACA_site2632]”, with 8.39 ± 0.42.
Then “AAATTTTTTGTTCAATGTACTTTTTTATTATATTTT [XGTACX_site5298]”, with 8.64 ± 0.4; and “TCTACTATTATATATTGTACAAATGATACTTATATT [XGTACX_site1819]”, with 8.62 ± 0.36; and “GATATATAATATAATACACACATTTTATGAATGTAA [CACACA_site24]”, with 8.09 ± 0.23.
Turning to “ATTTTTTAAATTTAAACACACATTTTGTATATGTTT [CACACA_site1654]”, the “gcPBM binding intensity (ln)” value is 8.71 ± 0.4.
Then “AAATTTTATAAAGGAACACACATTTTTTTTTTTTCT [CACACA_site2368]”, with 8.17 ± 0.35; and “GAAATAATTTTTATTTGTACACACATACATATATAT [XGTACX_site1862]”, with 8.76 ± 0.19.
With “TTATTCATTTCGAAAAGTACAAATTCTGTTTATTAT [XGTACX_site6892]”, the “gcPBM binding intensity (ln)” value was determined as 8.52 ± 0.43.
Then “CCACTAATTATGTGCACACAAATTAAAGGTCTACAA [CACACA_site4259]”, with 8.74 ± 0.12.
Then “TTTTGTCGGAAATCGGATAAGAAGAAAAAAAATAAT [GTGCAC_negctrl_site594]”, with 8.81 ± 0.47; and “TTCACTCCATATTATACACACACACTAATGAAAAAA [CACACA_site8991]”, with 8.73 ± 0.48; and “AAAAAAAAAAAAAGTACACACATACATATAAATATA [CACACA_site8533]”, with 8.48 ± 0.4.
Then AAAAAAAAAAAATACGTGCACTATGATATATTATAT, with 8.95 ± 0.092; and “ATAATATTTATAAATTGTACTAATGTTCAATAATTA [XGTACX_site7284]”, with 8.34 ± 0.35.
For the sequence “ATATTGACAGGAAAAATTTTCTTTGAATCTTTAAAA [CACACA_negctrl_site1191]”, the “gcPBM binding intensity (ln)” value worked out at 8.2 ± 0.52.
As for “AAATGAAAAATAAGGAAAAAAAAAAAAAAAAAAAAA [CACACA_negctrl_site1715]”, the “gcPBM binding intensity (ln)” value turned out to be 8.09 ± 0.49.
Then “TAAAATATTTCAAAGGTGCAATGATAATTTAAGACG [GTGCAC_site9609]”, with 8.8 ± 0.24; and “ACAAAAAAAATAAGCACACATATATATATATATATA [CACACA_site816]”, with 10.2 ± 0.6.
Take “TATGTTATATTGGACACACACAATAAACATTATGTA [CACACA_site1657]”: the “gcPBM binding intensity (ln)” value was 8.37 ± 0.33.
Then “ATATATATATATAAGCGTACGCGTAGTTAAATTAAT [XGTACX_site7693]”, with 10 ± 0.38.
Then “TTTTCAAAAATATATACACACATGCATATTACGGTG [CACACA_site775]”, with 8.79 ± 0.46; and “TACATGATAAGATGTAGTACATAAAAGAATAAATTA [XGTACX_site787]”, with 8.71 ± 0.26.
Then “ACGATAACATTTTTACGTACATATATTTTCACGGAG [XGTACX_site8764]”, with 8.8 ± 0.36.
With “TATTCAATACTTAATGCACACAATAAAAAAAATATG [CACACA_site2467]”, the “gcPBM binding intensity (ln)” value came out at 8.87 ± 0.014.
Then “AATATATTTAATGAGTGTACATTATTTATTATTATT [XGTACX_site6889]”, with 8.39 ± 0.36.
Then “AAATAAAAAAAATAAAAGCAATCATAATAAAAATCT [CACACA_negctrl_site161]”, with 8.46 ± 0.38; and “AATTTATATTAAAATTGTACATTTCTTCTATAATAC [XGTACX_site8639]”, with 8.45 ± 0.42; and “TGTATGTATTTGTGTAGTACGCATAAGTAATAAAAC [XGTACX_site6704]”, with 9.12 ± 0.36.

(Values after the supplement of paper PMC11417369.)
